The values below come from the antibiotic and cytotoxicity screens of Wong et al. (2023).

This is one part of the list.

The subject of this test is S. aureus RN4220. As to the kind of experiment: growth inhibition call (relative growth <= 0.2). To be noted: 50 µM.
`CCCNC(=O)N1C[C@@H](O)COC[C@@H]2O[C@H](CC(=O)NCc3ccncn3)CC[C@H]21`: the growth inhibition call was “inactive”.

In the case of `C[C@@H]1CN([C@H](C)CO)C(=O)c2cc(NS(=O)(=O)c3cn(C)cn3)ccc2O[C@@H]1CN(C)S(=O)(=O)c1cccs1`, the growth inhibition call is “inactive”.

Turning to `Nc1nnc([C@H]2CCCO2)s1`, the growth inhibition call was “inactive”.

Regarding `COCC(=O)Nc1ccc2c(c1)C(=O)N(C)C[C@@H](OC)[C@@H](C)CN(Cc1cccc(F)c1)[C@@H](C)CO2`, the growth inhibition call was “inactive”.

On to `Cc1ccc(S(=O)(=O)N(C)C[C@H]2OCCCC[C@@H](C)Oc3ccc(NC(=O)Nc4ccccc4)cc3C(=O)N([C@@H](C)CO)C[C@H]2C)cc1`, for which the growth inhibition call was “inactive”. In the case of `O=C(C[C@H]1CC[C@H]2[C@@H](COC[C@@H](O)CN2S(=O)(=O)c2cccc(F)c2)O1)NCCCN1CCOCC1`, the growth inhibition call is “inactive”. In the case of `COc1ccc(-c2cnc3c(c2)C(=O)N([C@@H](C)CO)C[C@@H](C)[C@@H](CN(C)C(=O)Cc2ccncc2)O3)cc1`, the growth inhibition call was “inactive”. As for `NCC[C@@H]1CC[C@H](NC(=O)Nc2ccc(F)cc2)[C@H](CO)O1`, the entry is “inactive”. As for `CCOC(=O)[C@H]1C/C=C/C[C@H](C(=O)OCC)C(=O)O[C@H]2[C@@H](OC)O[C@H](CO)[C@@H](OC(=O)Nc3ccccc3)[C@@H]2OC1=O`, the entry is “inactive”; as for `C[C@@H]1CCCCO[C@@H](CN(C)C(=O)Nc2ccc(C(F)(F)F)cc2)[C@H](C)CN([C@@H](C)CO)C(=O)c2cc(NC(=O)Nc3cccc4ccccc34)ccc2O1`, “inactive”; as for `C[C@H]1CCCCO[C@H](CN(C)Cc2ccccc2)[C@@H](C)CN([C@@H](C)CO)C(=O)c2cc(NC(=O)Nc3ccc(C(F)(F)F)cc3)ccc2O1`, “inactive”.
